In PubChem BioAssay AID588453 (National Center for Advancing Translational Sciences (NCATS), 2011):
Values joined by “and” are separate entries in the source; they are usually repeats but may differ in a detail not shown here. Identical values can stand only once. Among all 390,000 compounds or so, about 4,000 (1%) were called active. The inconclusive results got no clear call from the source; some entries with a clear call stand among them for comparison. Calls come from the whole dose curve; as a rule, active = well fitted inhibition curve with a large enough effect; inconclusive = small, poorly fitted or top-dose-only effect; inactive = no such curve, though single readings can be large or run the other way. Potencies beside an inconclusive call are fits to weak or partial responses and may not hold up.

Molecular target: Thioredoxin reductase 1, cytoplasmic (Rattus norvegicus) (UniProt O89049)
Chain of UniProt O89049 (O89049 whole entry, looked up): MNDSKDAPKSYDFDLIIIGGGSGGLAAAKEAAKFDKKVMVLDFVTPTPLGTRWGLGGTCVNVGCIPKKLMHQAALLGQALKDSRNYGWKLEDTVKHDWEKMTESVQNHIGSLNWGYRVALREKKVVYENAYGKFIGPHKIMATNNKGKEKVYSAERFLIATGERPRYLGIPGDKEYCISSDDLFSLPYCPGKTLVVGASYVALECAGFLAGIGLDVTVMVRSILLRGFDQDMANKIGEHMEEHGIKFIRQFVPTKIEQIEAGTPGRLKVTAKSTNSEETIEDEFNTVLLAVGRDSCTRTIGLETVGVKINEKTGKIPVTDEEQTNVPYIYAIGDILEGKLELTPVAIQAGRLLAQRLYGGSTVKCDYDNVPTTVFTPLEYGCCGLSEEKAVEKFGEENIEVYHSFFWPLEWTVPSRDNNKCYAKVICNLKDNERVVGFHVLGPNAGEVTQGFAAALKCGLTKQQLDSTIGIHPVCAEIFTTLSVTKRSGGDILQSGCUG
Assay: qHTS Assay for Inhibitors of Mammalian Selenoprotein Thioredoxin Reductase 1 (TrxR1): qHTS; note: nearly all actives have a fitted effect of over 65% in size
Settings: recombinant rTrxR1, NADPH fluorescence consumption, selenite substrate; series mostly up to 114 µM
Summary of the method: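 Rat TrxR1 (90 nM in the dispensed reagent) was pre-reduced with 400 uM NADPH for 5 min at room temperature, then incubated with compound for 15 min. After 400 uM selenite was added, NADPH fluorescence (Ex 340/Em 450 nm) was followed for 8 min.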
% is set by controls: 0 for no effect and ±100 for the full control effect; potency is the fitted concentration of half-maximal effect; tags give direction and shape of the fitted curve.

Question: `COCCN(C(=S)Nc1ccc(C)cc1)C(C)c1ccco1` (stereo not given) was tested. Which Potency did it give?
Answer: Its Potency is “inactive”.

Question: `COC(=O)[C@H]1[C@H]2C[C@@H]3c4[nH]c5cc(OC)ccc5c4CCN3C[C@H]2C[C@@H](OC(=O)c2cc(OC)c(OC)c(OC)c2)[C@@H]1OC` was tested. Which Potency did it give?
Answer: The Potency was inconclusive: 44.7 µM [inhibitor, partial curve] and inconclusive: 20 µM [inhibitor, single point].

Question: How did the Potency turn out when `NC(=O)c1ccc(N=Cc2ccc([N+](=O)[O-])s2)cc1` was run?
Answer: Its Potency is inconclusive: 56.2 µM [inhibitor, partial curve].

Question: With `COc1ccc(-c2nc3ccccc3n2Cc2ccccc2)cc1` as the compound, how does the Potency read?
Answer: Its Potency is “inactive”.

Question: How did the Potency turn out when `COC(=O)c1[nH]c2ccccc2c1NS(=O)(=O)c1ccc(F)c(C)c1` was run?
Answer: The Potency was “inactive”.

Question: `COc1cccc(C(=O)Nc2nc(-c3nnn(-c4ccccc4C(F)(F)F)c3C)ns2)c1` was tested. Which Potency did it give?
Answer: The Potency was “inactive”.

Question: Which Potency does the source give for `CC(NC(=O)c1cc(-c2ccccn2)nc2ccc(Cl)cc12)C1CCCO1` (stereo not given) here?
Answer: The Potency was inconclusive: 89.1 µM [inhibitor, single point].

Question: How did the Potency turn out when `CC(/C=N/n1c(-c2ccccn2)n[nH]c1=S)=C\c1ccccc1` was run?
Answer: Its Potency is inconclusive: 79.4 µM [inhibitor, single point].

Question: With `Cc1ccc(-c2noc(C3CCCN(C(=O)c4ccccc4)C3)n2)o1` (stereo not given) as the compound, how does the Potency read?
Answer: The Potency was inconclusive: 56.2 µM [inhibitor, partial curve, poor fit].

Question: How did the Potency turn out when `COc1cccc(CNC(=O)Cn2nc(C)n3c(cc4cc(C)ccc43)c2=O)c1OC` was run?
Answer: The Potency was “inactive”.

Question: For `COc1cc(/C=C2/C(=O)NN(c3cccc(Cl)c3)C2=O)cc(OC)c1O`, which Potency is on record?
Answer: Its Potency is inconclusive: 50.1 µM [inhibitor, partial curve].

Question: For `CCOC(=O)C(C)N1C(=O)S/C(=C/c2ccc3c(c2)n(C)c(=O)n3C)C1=O` (stereo not given), which Potency is on record?
Answer: Its Potency is “inactive”.

Question: How did the Potency turn out when `O=C(Nc1nnc(C2=COCCO2)o1)c1ccc(Cl)cc1` was run?
Answer: The Potency was “inactive”.

Question: `NC(=O)c1nsc(C(=O)N(CC(=O)NCc2ccc(F)cc2)Cc2ccco2)c1N` was tested. Which Potency did it give?
Answer: The Potency was inconclusive: 70.8 µM [inhibitor, partial curve].

Question: How did the Potency turn out when `COc1ccc(C(=O)Oc2c(Sc3ccccc3)c(C)nn2-c2ccccc2)c(OC)c1` was run?
Answer: Its Potency is “inactive”.

Question: How did the Potency turn out when `Oc1oc(-c2ccccc2)nc1C=NCc1ccncc1` was run?
Answer: The Potency was inconclusive: 50.1 µM [inhibitor, partial curve].

Question: With `O=C(O)c1ccc(/C=C2\SC(=S)N(Nc3ccccc3)C2=O)cc1` as the compound, how does the Potency read?
Answer: The Potency was active: 50.1 µM.

Question: For `N#CCCn1c(SCC(=O)NCC2CCCO2)nc2ccccc21` (stereo not given), which Potency is on record?
Answer: Its Potency is “inactive”.

Question: Which Potency does the source give for `C1=C(c2ccccc2)CCN(c2nc3ccccc3n3cnnc23)C1` here?
Answer: The Potency was active: 3.98 µM.

Question: With `O=c1oc2ccccc2c(N2CCCCC2)c1CN1CCCCC1` as the compound, how does the Potency read?
Answer: The Potency was active: 25.1 µM.

Question: For `Cn1c(SCc2ccccc2)nnc1C1CCCNC1` (stereo not given), which Potency is on record?
Answer: The Potency was inconclusive: 28.2 µM [inhibitor, single point].

Question: For `N#C/C(=C\c1ccco1)Sc1nc2ccccc2s1`, which Potency is on record?
Answer: The Potency was inconclusive: 79.4 µM [inhibitor, single point].

Question: Which Potency does the source give for `CC(=O)N1CCCc2cc(S(=O)(=O)N(C)CC(=O)Nc3cccc(Cl)c3C)ccc21` here?
Answer: Its Potency is “inactive”.

Question: For `O=C(Cc1nc(-c2ccc(Br)s2)cs1)NCCN1CCOCC1`, which Potency is on record?
Answer: Its Potency is inconclusive: 50.1 µM [inhibitor, partial curve].

Question: Which Potency does the source give for `Cc1ncc(CCl)c2c1OC(C)(C)OC2` here?
Answer: Its Potency is inconclusive: 70.8 µM [inhibitor, single point].

Question: Which Potency does the source give for `Nc1ccc(C(=O)CC(=O)Nc2ccc(Cl)cc2)cc1` here?
Answer: Its Potency is inconclusive: 44.7 µM [inhibitor, partial curve].

Question: With `CC1=C(CC(=O)c2ccc(Cl)cc2)C(=O)c2ccccc2C1=O` as the compound, how does the Potency read?
Answer: Its Potency is inconclusive: 31.6 µM [inhibitor, partial curve, poor fit].

Question: With `N#CCc1ccc(NC(=O)/C=C/c2ccc([N+](=O)[O-])o2)cc1` as the compound, how does the Potency read?
Answer: Its Potency is active: 15.8 µM.

Question: How did the Potency turn out when `O=c1[nH]c2ccc(NC(=S)Nc3ccc(Cl)cc3)cc2[nH]1` was run?
Answer: The Potency was inconclusive: 6.31 µM [inhibitor, full curve, poor fit].

Question: How did the Potency turn out when `CCN1CCN(C(=O)c2cc3c(=O)n(C)c4ccccc4c3n2C)CC1` was run?
Answer: The Potency was inconclusive: 22.4 µM [inhibitor, partial curve, poor fit].

Question: For `CCCCOc1ccc(C(O)(CC)CCN2CCOCC2)cc1` (stereo not given), which Potency is on record?
Answer: The Potency was inconclusive: 20 µM [inhibitor, partial curve, poor fit].

Question: How did the Potency turn out when `c1ccc2nccnc2c1` was run?
Answer: Its Potency is inconclusive: 3.16 µM [inhibitor, full curve, poor fit].

Question: With `Cc1ccc(NC2=C(c3ccc(C(F)(F)F)cc3)C(=O)c3ccccc32)cc1C` as the compound, how does the Potency read?
Answer: The Potency was inconclusive: 50.1 µM [inhibitor, partial curve].

Question: For `O=C(CSc1nc2[nH]ncc2c(=O)n1-c1ccccc1Br)NCc1ccco1`, which Potency is on record?
Answer: Its Potency is inconclusive: 17.8 µM [inhibitor, full curve].

Question: `CCS(=O)(=O)Nc1cccc(C2=NN(S(=O)(=O)c3ccccc3)C(c3ccco3)C2)c1` (stereo not given) was tested. Which Potency did it give?
Answer: Its Potency is inconclusive: 17.8 µM [inhibitor, full curve, poor fit].

Question: `O=C(c1cc(-c2ccc(Cl)cc2Cl)on1)N1CCOCC1` was tested. Which Potency did it give?
Answer: Its Potency is “inactive”.

Question: With `NS(=O)(=O)c1ccc(NC(=S)NC(=O)/C=C/c2ccco2)cc1` as the compound, how does the Potency read?
Answer: The Potency was inconclusive: 79.4 µM [inhibitor, single point].

Question: With `CC1(C)CC(N2CCN(CCO)CC2)=CC(=S)N1` as the compound, how does the Potency read?
Answer: Its Potency is inconclusive: 89.1 µM [inhibitor, single point].

Question: Which Potency does the source give for `O=C(Nc1ccccc1N1CCCC1)c1ccccc1F` here?
Answer: Its Potency is “inactive”.

Question: For `CCOC(=O)C(C)Sc1ccc2nnc(-c3ccc(F)cc3)n2n1` (stereo not given), which Potency is on record?
Answer: Its Potency is inconclusive: 89.1 µM [inhibitor, single point].

Question: For `Cc1ccccc1-c1nc(CS(=O)(=O)CC(=O)N(C)C2CCCCC2)c(C)o1`, which Potency is on record?
Answer: Its Potency is inconclusive: 7.94 µM [inhibitor, full curve].

Question: Which Potency does the source give for `O=C(NN=Cc1cc(Br)c(O)c(Br)c1)c1ccccc1NS(=O)(=O)c1cccs1` here?
Answer: The Potency was inconclusive: 70.8 µM [inhibitor, partial curve].

Question: `O=C(O)c1cccc(-c2ccc(/C=C3/SC(=Nc4ccccc4)N(Cc4cccnc4)C3=O)o2)c1` was tested. Which Potency did it give?
Answer: The Potency was inconclusive: 39.8 µM [inhibitor, single point].

Question: For `CC1CN(C(=O)COC(=O)c2ccc(N)c([N+](=O)[O-])c2)CC(C)O1` (stereo not given), which Potency is on record?
Answer: Its Potency is “inactive”.

Question: How did the Potency turn out when `O=C1Nc2cccnc2N(C(=O)CCl)c2ccccc21` was run?
Answer: The Potency was active: 12.6 µM.

Question: With `COc1ccc(C2=CC(=O)N(Nc3ccccc3)C2=O)cc1` as the compound, how does the Potency read?
Answer: Its Potency is inconclusive: 10 µM [inhibitor, partial curve, poor fit].

Question: With `CCOC(=O)CNC(c1ccccc1)c1cc(Br)ccc1NC(=O)CCN1CCOCC1` (stereo not given) as the compound, how does the Potency read?
Answer: Its Potency is inconclusive: 7.08 µM [inhibitor, full curve, poor fit].

Question: Which Potency does the source give for `N#Cc1cc2ccc(N3CCOCC3)cc2cc1C#N` here?
Answer: Its Potency is “inactive”.

Question: How did the Potency turn out when `CCOc1[nH]c(/N=C/c2ccc(OC)cc2)c(C#N)c1C#N` was run?
Answer: The Potency was inconclusive: 50.1 µM [inhibitor, partial curve].

Question: `CNC(=S)Nc1ccc([N+](=O)[O-])cc1C` was tested. Which Potency did it give?
Answer: The Potency was inconclusive: 22.4 µM [inhibitor, partial curve, poor fit].

Question: How did the Potency turn out when `CC(C)N(CCn1cnc2c([nH]c3ccccc32)c1=O)C(C)C` was run?
Answer: Its Potency is “inactive”.

Question: For `COc1ccc(N2C(=O)CC(Nc3ccc(C(=O)O)cc3)C2=O)cc1OC` (stereo not given), which Potency is on record?
Answer: Its Potency is inconclusive: 50.1 µM [inhibitor, partial curve].

Question: For `S=c1c2c(nc3nc[nH]n13)CCC2`, which Potency is on record?
Answer: The Potency was inconclusive: 20 µM [inhibitor, full curve].

Question: How did the Potency turn out when `O=c1[nH]nc(SCc2ccccc2Cl)n1-c1ccc2c(c1)OCCO2` was run?
Answer: The Potency was inconclusive: 39.8 µM [inhibitor, single point].

Question: With `Cc1ccc(S(=O)(=O)Cc2ccc(C(=O)NCCCN3CCCC3=O)o2)cc1` as the compound, how does the Potency read?
Answer: Its Potency is inconclusive: 20 µM [inhibitor, single point].

Question: Which Potency does the source give for `O=P(/C(=N/O)Sc1ccccc1)(N1CCOCC1)N1CCOCC1` here?
Answer: The Potency was inconclusive: 10 µM [inhibitor, full curve].

Question: How did the activity change, negative = inhibition turn out when `C/C(=N\NC(=S)NCC(C)(C)C)c1cc(F)cc(F)c1O` was run?
Answer: The activity change, negative = inhibition was inactive: 11.7% [at 11.4 µM].

Question: How did the Potency turn out when `COc1ccc2c(CC(=O)N[C@@H](Cc3ccccc3)C(=O)O)cc(=O)oc2c1` was run?
Answer: Its Potency is inconclusive: 89.1 µM [inhibitor, single point].

Question: Which Potency does the source give for `S=c1nc[nH]c2c1sc1nc(-c3ccccc3)c3c(c12)CCCC3` here?
Answer: Its Potency is inconclusive: 56.2 µM [inhibitor, single point].

Question: With `O=C(NC1CCCCCC1)c1ccccc1-c1ccccc1` as the compound, how does the Potency read?
Answer: Its Potency is “inactive”.

Question: How did the Potency turn out when `Cn1c(=O)c2c(n(Cc3ccccc3)c1=O)NC(=O)C2CC(=O)O` (stereo not given) was run?
Answer: The Potency was inconclusive: 79.4 µM [inhibitor, single point].

Question: Which Potency does the source give for `CC1CCN(CCCNC(=O)C2CC(=O)N(CCc3ccccc3)C2)CC1` (stereo not given) here?
Answer: The Potency was inconclusive: 79.4 µM [inhibitor, partial curve, poor fit].

Question: For `Cc1cccc(NS(=O)(=O)c2ccc3oc(=O)ccc3c2)c1C`, which Potency is on record?
Answer: The Potency was “inactive”.

Question: With `COc1ccc(OC)c(/C=N/NC(=O)c2cc(-c3ccc(C)o3)nc3ccccc23)c1` as the compound, how does the Potency read?
Answer: The Potency was active: 79.4 µM.

Question: Which Potency does the source give for `CCOC(=O)N1CCc2c(sc(NC(=O)c3ccc(S(=O)(=O)N4CCCC4)cc3)c2C#N)C1` here?
Answer: Its Potency is inconclusive: 20 µM [inhibitor, partial curve, poor fit].

Question: With `CN(C(=O)COc1ccccc1C(=O)Nc1ccccc1)c1ccccc1` as the compound, how does the Potency read?
Answer: The Potency was “inactive”.

Question: For `Cc1ccnc(NC(c2ccccc2F)c2ccc3cccnc3c2O)c1` (stereo not given), which Potency is on record?
Answer: The Potency was inconclusive: 15.8 µM [inhibitor, full curve].

Question: `NC(=S)n1[nH]c(-c2ccc([N+](=O)[O-])cc2)c(N=Nc2cccc(Cl)c2)c1=O` was tested. Which Potency did it give?
Answer: The Potency was “inactive”.

Question: How did the Potency turn out when `COc1cc(/C=C/CNC[C@H]2O[C@@H](n3ccc(=O)[nH]c3=O)[C@H](O)[C@@H]2O)ccc1O` was run?
Answer: Its Potency is inconclusive: 50.1 µM [inhibitor, partial curve].

Question: Which Potency does the source give for `Cc1ccc(N2CCn3c2nc2c3c(=O)n(CCc3ccccc3)c(=O)n2C)cc1C` here?
Answer: Its Potency is “inactive”.
